This is an account of results in the RNAGym collection of RNA variant scans (doi:10.7554/elife.90254).

First the molecules themselves.
B1: LINE1-mini (parent)
chain: GGCAGAGCUCAACACAGCGUGGCAAAGUGGCUGUGGCUAGACUGCC

The source gives no read counts; variants with many changes may rest on few reads.

Variants of B1 are the subject of this series. Description: self-cleavage, relative activity (ratio to wild type); higher = more cleavage; in vitro, sequencing; the parent is a self-cleaving ribozyme.
On to GGCAGAGCUCAACACAGCGUGGCAAACUGGGUCUUGCUAGACCGCC [G27C C31G G33C G35U U43C], for which the self-cleavage is 0.02.
For the variant GGCAGAGCUCAACACAGCGUGGCAAAUUGUCUGUUGCUACACUGCC [G27U G30U G35U G40C], the self-cleavage was 0.04.
Consider GGCAGAGCUCAACACAGCGUGGCAAACUGGCUGUGGCGGGAGUGCC [G27C U38G A39G C42G], for which the self-cleavage was determined as 0.01.
GGCAGAGCUCAACACAGCGUGGCAAGGCGGAUGGGGCUAGAAUGCC [A26G U28C C31A U34G C42A]: the self-cleavage was 0.
Under GGCAGAGCUCAACACAGCGUGGCAAUGAGGCUUUGGCUAGACUGCU [A26U U28A G33U C46U] stands 0.02; under GGCAGAGCUCAACACAGCGUGGCAAACUGCCUGUGGCCAGACUGCC [G27C G30C U38C], 1.23.
Next, GGCAGAGCUCAACACAGCGUGGCAAAUUGGCUGUGAUAAGACUGCC [G27U G36A C37U U38A]: 0.02.
For GGCAGAGCUCAACACAGCGUGGCAAGCUGACCGUGGCUAGACUGCC [A26G G27C G30A U32C], the self-cleavage worked out at 0.17.
Next, GGCAGAGCUCAACACAGCGUGGCAAAUUGGCUGUGGCUAGACUGUU [G27U C45U C46U]: 1.66.
As for GGCAGAGCUCAACACAGCGUGGCAAUGUGACGUUGACUCGACUAGC [A26U G30A U32G G33U G36A A39C G44A C45G], the self-cleavage was found to be 0.
As for GGCAGAGCUCAACACAGCGUGGCAAUGUGGCUGGGGCUAGACAGCU [A26U U34G U43A C46U], the self-cleavage was 0.02.
Take GGCAGAGCUCAACACAGCGUGGCAAAUUGUCGGUGGCCAGACUGCC [G27U G30U U32G U38C]: the self-cleavage is 0.01.
Next, GGCAGAGCUCAACACAGCGUGGCAAAUUGGCUGUGGAUAAACUGCC [G27U C37A G40A]: 0.1.
Under GGCAGAGCUCAACACAGCGUGGCAAACUGUCUGUGGGUAGACUGCC [G27C G30U C37G] stands 0.04.
Under GGCAGAGCUCAACACAGCGUGGCAAUGUGACUGUGGCUAGAGUGCC [A26U G30A C42G] stands 0.01.
Consider GGCAGAGCUCAACACAGCGUGGCAAAUUGGCUGUGCCUCGACUGCC [G27U G36C A39C], for which the self-cleavage worked out at 0.02.
For the variant GGCAGAGCUCAACACAGCGUGGCAAUGUGGCUGCGGCUAGACUGCA [A26U U34C C46A], the self-cleavage is 0.07.
Take GGCAGAGCUCAACACAGCGUGGCAAACUGGCUGAGGUUAAACUGCC [G27C U34A C37U G40A]: the self-cleavage came out at 0.02.
Turning to GGCAGAGCUCAACACAGCGUGGCAAUGUCGAUGUGGCUAGACCGCC [A26U G29C C31A U43C], the self-cleavage amounted to 0.03.
Under GGCAGAGCUCAACACAGCGUGGCAAUGUUGCUUUGGCUAAACUGCC [A26U G29U G33U G40A] stands 0.14; under GGCAGAGCUCAACACAGCGUGGCAAACUGGCUGAGGCUAGACUUCC [G27C U34A G44U], 0.02; under GGCAGAGCUCAACACAGCGUGGCAAUGAGGUUGGGGCUAGACUGCC [A26U U28A C31U U34G], 0.03.
Consider GGCAGAGCUCAACACAGCGUGGCAAAUUGGCUGUGGCUAGCCUUCC [G27U A41C G44U], for which the self-cleavage stood at 0.16.
As for GGCAGAGCUCAACACAGCGUGGCAAUGUUGCUGUCGAGAGACUGCC [A26U G29U G35C C37A U38G], the self-cleavage was found to be 0.01.
Turning to GGCAGAGCUCAACACAGCGUGGCAAAUUGACUGUAGCUAGACUGCC [G27U G30A G35A], the self-cleavage came out at 0.03.
Under GGCAGAGCUCAACACAGCGUGGCAAACUGGCGGAGGCUAGACUGCC [G27C U32G U34A] stands 0.09; under GGCAGAGCUCAACACAGCGUGGCAAAUUGGCUGUGCCUAGACUGUC [G27U G36C C45U], 0.05; under GGCAGAGCUCAACACAGCGUGGCAAAUUGGCUGUGACUAGAUUGCC [G27U G36A C42U], 0.07.
Turning to GGCAGAGCUCAACACAGCGUGGCAAAAUGGCUGUGGCUAGACUACU [G27A G44A C46U], the self-cleavage is 0.05.
As for GGCAGAGCUCAACACAGCGUGGCAAUGUGGCUGUGGCUAGGCGGCC [A26U A41G U43G], the self-cleavage worked out at 0.01.
As for GGCAGAGCUCAACACAGCGUGGCAAAUUGGCUGUAGCUAGAUUGCC [G27U G35A C42U], the self-cleavage stood at 0.07.
Turning to GGCAGAGCUCAACACAGCGUGGCAAACGGGCUUUGGCUAGCCUGCC [G27C U28G G33U A41C], the self-cleavage was 0.03.
On to GGCAGAGCUCAACACAGCGUGGCAAUGUGGCUCUGGCAAGACUUCC [A26U G33C U38A G44U], for which the self-cleavage was determined as 0.03.
Under GGCAGAGCUCAACACAGCGUGGCAAUGUGGCUGUGGCAAAACUGCC [A26U U38A G40A] stands 0.04; under GGCAGAGCUCAACACAGCGUGGCAAGGGGGAUGUGCCUAGACUGCC [A26G U28G C31A G36C], 0.01; under GGCAGAGCUCAACACAGCGUGGCAAAUUCGCUUCGGCUAGACUGCC [G27U G29C G33U U34C], 0.09.
Next, GGCAGAGCUCAACACAGCGUGGCAAAUUGCCUGUGCCUAGACUGAC [G27U G30C G36C C45A]: 0; GGCAGAGCUCAACACAGCGUGGCAAUGUGGCUGUGCCUACACUGCC [A26U G36C G40C]: 0.13; GGCAGAGCUCAACACAGCGUGGCAAACUAGCUGUGGCUACACUGCC [G27C G29A G40C]: 0.14.
Next, GGCAGAGCUCAACACAGCGUGGCAAAAGGGAUGUGGCUAGACUGCA [G27A U28G C31A C46A]: 0.11; GGCAGAGCUCAACACAGCGUGGCAAAUUGUCUGUGGCUAGUAUGCC [G27U G30U A41U C42A]: 0.03.
As to GGCAGAGCUCAACACAGCGUGGCAAAUUGGCUGUGGGUAGACGGCC [G27U C37G U43G], the self-cleavage stood at 0.04.
Under GGCAGAGCUCAACACAGCGUGGCAAACUGGCUGUGGCUAGAGUUCC [G27C C42G G44U] stands 0.01; under GGCAGAGCUCAACACAGCGUGGCAAAUUGCCUGGGGCUAGACUGCC [G27U G30C U34G], 0.03.
On to GGCAGAGCUCAACACAGCGUGGCAAACUGCAUGUGGCUAGACUUCC [G27C G30C C31A G44U], for which the self-cleavage is 0.07.
Turning to GGCAGAGCUCAACACAGCGUGGCAAAUUGGCUGUUGUUAGACUGCC [G27U G35U C37U], the self-cleavage came to 0.
Under GGCAGAGCUCAACACAGCGUGGCAAGAUGGCUGUGGCUAGACUGAC [A26G G27A C45A] stands 0.86.
Under GGCAGAGCUCAACACAGCGUGGCAAACUGGUAGUGGCUAAACUGCC [G27C C31U U32A G40A] stands 0.03; under GGCAGAGCUCAACACAGCGUGGCAAAAUGGCUGUGGCCAAAUUGCC [G27A U38C G40A C42U], 0.08; under GGCAGAGCUCAACACAGCGUGGCAAACUGGGGCUGGCUAGACCGCC [G27C C31G U32G G33C U43C], 0.04.
As to GGCAGAGCUCAACACAGCGUGGCAAACGGAUUGUGGCUAUACUGCC [G27C U28G G30A C31U G40U], the self-cleavage was 0.06.
Under GGCAGAGCUCAACACAGCGUGGCAAUGUGGGUGAGGCUAGACUGCC [A26U C31G U34A] stands 0.01.
Next, GGCAGAGCUCAACACAGCGUGGCAAAUUGUCUGUCGCUAGACUGCC [G27U G30U G35C]: 0.13; GGCAGAGCUCAACACAGCGUGGCAAACUGACUGUGGCUAGACUGAC [G27C G30A C45A]: 0.37; GGCAGAGCUCAACACAGCGUGGCAAAUUGGCUGUGACUAGACUGCA [G27U G36A C46A]: 0.04.
Consider GGCAGAGCUCAACACAGCGUGGCAAAAUGGCUGUUGAUGGACUGCA [G27A G35U C37A A39G C46A], for which the self-cleavage is 0.06.
